About 5,700 (2.6%) of roughly 220,000 compounds were called active. Inconclusive results, whose numbers are uncertain, are shown with a selection of clear calls. Calls follow the shape of the dose curve; as a rule, active = well fitted inhibition curve with a large enough effect; inconclusive = small, poorly fitted or top-dose-only effect; inactive = no such curve, though single readings can be large or run the other way. Potencies of inconclusive entries are doubtful fits and often do not repeat.
The compounds below were run against Lysine-specific demethylase 5B (Homo sapiens) (UniProt Q9UGL1) (assay: Primary screen for KDM5B Histone Demethylases FDH-coupled qHTS). Details: FDH-coupled NADH fluorescence (FDH is formaldehyde dehydrogenase); series mostly up to 57.7 µM.
Chain of UniProt Q9UGL1 (Q9UGL1 whole entry, looked up): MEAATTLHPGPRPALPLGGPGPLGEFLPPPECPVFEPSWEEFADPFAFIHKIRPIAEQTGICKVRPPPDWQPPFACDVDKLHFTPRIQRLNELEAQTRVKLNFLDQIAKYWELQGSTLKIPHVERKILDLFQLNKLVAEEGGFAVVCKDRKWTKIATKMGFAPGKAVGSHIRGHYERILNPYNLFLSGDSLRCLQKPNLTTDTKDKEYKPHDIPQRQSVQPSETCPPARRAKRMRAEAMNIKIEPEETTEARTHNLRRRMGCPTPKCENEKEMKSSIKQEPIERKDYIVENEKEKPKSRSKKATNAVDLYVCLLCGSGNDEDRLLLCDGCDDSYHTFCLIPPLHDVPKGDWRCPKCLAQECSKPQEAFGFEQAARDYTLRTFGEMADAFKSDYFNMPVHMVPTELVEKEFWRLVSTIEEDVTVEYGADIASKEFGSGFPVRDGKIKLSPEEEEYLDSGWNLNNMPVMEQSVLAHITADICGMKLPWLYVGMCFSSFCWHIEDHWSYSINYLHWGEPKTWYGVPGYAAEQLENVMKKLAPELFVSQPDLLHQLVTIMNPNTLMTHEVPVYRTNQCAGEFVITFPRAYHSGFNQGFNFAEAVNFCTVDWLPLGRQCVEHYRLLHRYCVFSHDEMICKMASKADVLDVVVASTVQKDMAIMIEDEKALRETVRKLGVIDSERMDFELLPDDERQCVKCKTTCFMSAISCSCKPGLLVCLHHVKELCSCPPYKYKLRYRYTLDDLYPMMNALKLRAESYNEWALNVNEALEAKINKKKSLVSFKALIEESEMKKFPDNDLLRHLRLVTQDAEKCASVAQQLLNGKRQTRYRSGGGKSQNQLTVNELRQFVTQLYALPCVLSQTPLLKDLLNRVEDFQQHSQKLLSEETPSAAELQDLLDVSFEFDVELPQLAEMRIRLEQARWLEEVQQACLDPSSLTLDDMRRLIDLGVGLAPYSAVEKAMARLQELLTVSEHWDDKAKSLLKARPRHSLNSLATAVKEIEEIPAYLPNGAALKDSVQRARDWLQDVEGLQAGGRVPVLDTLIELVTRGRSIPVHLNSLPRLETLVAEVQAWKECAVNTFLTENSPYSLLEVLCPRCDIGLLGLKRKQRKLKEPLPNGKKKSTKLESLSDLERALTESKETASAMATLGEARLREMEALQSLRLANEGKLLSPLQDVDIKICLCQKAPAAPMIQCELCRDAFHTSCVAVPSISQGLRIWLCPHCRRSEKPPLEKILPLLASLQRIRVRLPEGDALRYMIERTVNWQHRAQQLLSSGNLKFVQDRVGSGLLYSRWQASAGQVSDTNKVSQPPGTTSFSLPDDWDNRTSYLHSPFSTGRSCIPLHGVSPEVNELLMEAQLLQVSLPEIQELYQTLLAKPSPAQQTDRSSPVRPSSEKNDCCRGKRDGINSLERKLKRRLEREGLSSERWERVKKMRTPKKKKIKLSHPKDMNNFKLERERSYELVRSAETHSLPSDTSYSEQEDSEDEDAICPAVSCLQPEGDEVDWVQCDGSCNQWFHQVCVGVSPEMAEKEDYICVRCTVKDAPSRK
In short: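 Here, H3K4me3 peptide (12.5 µM in substrate mix) is demethylated by KDM5BΔAP, 200 nM final, after 10 min compound exposure. Formaldehyde product is coupled through FDH (0.25 U/mL in mix) to NADH fluorescence; 30-min ΔRFU feeds dose-response curves.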
Also: nearly all actives have a fitted effect of over 70% in size.
Potency is read from the fitted curve at half-maximal effect; tags tell the direction and shape of the fitted curve.

| Structure (SMILES) | Potency |
| --- | --- |
| CCCCOc1ccc(C(=O)N2CCN(CCc3ccccn3)CC2)cc1 | inconclusive: 28.2 µM [inhibitor, single point] |
| CN1CCN(c2cc(=O)c3ccnc(-c4ccccc4Oc4ccccc4)c3o2)CC1 | inconclusive: 20 µM [inhibitor, partial curve, poor fit] |
| Cc1ccc(NC(=O)N[C@H]2C[C@@](O)(C(=O)N[C@H]3CCCNC3=O)C[C@@H](O)[C@@H]2O)cc1 | inactive |
| CC1=NOC2(CCN(Cc3cccn3C)CC2)C1 | inconclusive: 25.1 µM [inhibitor, partial curve, poor fit] |
| COC(=O)c1ccc(OC)c(Cn2c(=O)n(Cc3ccccc3)c(=O)c3c2c2cc(OC)ccc2n3C)c1 | inconclusive: 17.8 µM [inhibitor, partial curve, poor fit] |
| Cc1cnc(C(=O)N(C)C2CCc3nnc(C)n3CC2)cn1 (stereo unspecified) | inconclusive: 10 µM [inhibitor, partial curve, poor fit] |
| CCOc1ccc(C(=O)N2CCCN(c3cc(-c4ccc(Cl)cc4)[nH]n3)CC2)cc1OCC | inconclusive: 14.1 µM [inhibitor, partial curve, poor fit] |
| COc1ccc(CN2CCCC3(C2)NC(=O)c2ccccc2O3)cc1 (stereo unspecified) | inconclusive: 25.1 µM [inhibitor, single point] |
| CCn1ncc(CN2CCCCCNC(=O)CC2c2ccccc2)c1C (stereo unspecified) | inactive |
| CN(C(=O)COC(=O)c1cc2ccccc2oc1=O)C1CCCCC1 | inconclusive: 39.8 µM [inhibitor, single point] |
| COCCCNC(=O)c1ccc2c(c1)C(O)CCCCCN2C (stereo unspecified) | inconclusive: 28.2 µM [inhibitor, partial curve, poor fit] |
| CC1CCc2[nH]c3ccc(C(=O)Nc4ccc(F)cc4)cc3c2C1 (stereo unspecified) | inconclusive: 39.8 µM [inhibitor, single point] |
| Fc1cc(Br)ccc1Nc1c2c(nc3nc(-c4cccs4)nn13)CCCC2 | inconclusive: 25.1 µM [inhibitor, single point] |
| CNC(=O)c1cc(Nc2nnc(-c3ccc(O)cc3)c3ccccc23)ccc1OC | inconclusive: 17.8 µM [inhibitor, partial curve, poor fit] |
| c1cncc(COc2cc3c(cn2)NCCN(Cc2ccsc2)C3)c1 | active: 35.5 µM |
| COc1ccc(OC)c(CCNC(=O)c2cc3c(s2)-c2ccccc2OC3)c1 | inconclusive: 8.91 µM [inhibitor, full curve, poor fit] |
| CCN1c2cc(C(=O)Nc3ccc(C(C)C)cc3)ccc2C(=O)N2CCCCC21 (stereo unspecified) | inconclusive: 25.1 µM [inhibitor, partial curve, poor fit] |
| CC(NC(=O)c1ccccc1NC(=O)c1nsc2ccccc12)c1ccccc1 (stereo unspecified) | inconclusive: 1.12 µM [inhibitor, partial curve, poor fit] |
| NC(=O)CSc1nc(-c2cccs2)nc2ccccc12 | inconclusive: 39.8 µM [inhibitor, partial curve, poor fit] |
| CC(C)(C)CC(=O)NC[C@H]1OC[C@@H](N(Cc2ccccc2)Cc2ccccc2)[C@@H]1O | inactive |
| COc1cc2c(cc1OC)C(CNC(=O)C(C)C)N(C(=O)Nc1ccc(C)cc1)CC2 (stereo unspecified) | inactive |
| Cc1cn2nc(C(=O)N3CCC(NC(=O)c4ccc(C#N)cc4)CC3)cc2c(=O)[nH]1 | inconclusive: 17.8 µM [inhibitor, partial curve] |

| Structure (SMILES) | Potency |
| --- | --- |
| Cc1ccc2cc(/C=C/C(=O)NC3CCCC3)oc2c1 | inconclusive: 31.6 µM [inhibitor, partial curve, poor fit] |
| CCCNC(=O)c1cccc(CNCc2ccsc2)c1 | inactive |
| COc1cc(/C=C/C(=O)c2ccc(C(=O)O)s2)cc(OC)c1O | inconclusive: 8.91 µM [inhibitor, full curve, poor fit] |
| Nc1nccnc1C(=O)NCc1ccc(NC(=O)c2ccco2)cc1 | inconclusive: 31.6 µM [inhibitor, partial curve, poor fit] |
| CSc1ccc(-c2nc3ccc(C)cn3c2Nc2ccccc2C)cc1 | inconclusive: 3.55 µM [inhibitor, full curve, poor fit] |
| Cc1ccc(/C=N/N=C(c2ccccc2)c2ccccc2)o1 | inactive |
| N#Cc1cccc(-c2ccnc(N[C@H]3CO[C@H]4[C@@H]3OC[C@H]4OC(=O)Nc3cccc4ccccc34)n2)c1 | inconclusive: 20 µM [inhibitor, partial curve, poor fit] |
| Cc1ccc(-c2nc(CS(=O)Cc3ccccc3)co2)cc1 (stereo unspecified) | inactive |
| COc1ccc(-c2nc3ccccc3o2)cc1NC(=O)c1ccc2c(c1)OCO2 | inconclusive: 1.78 µM [inhibitor, full curve, poor fit] |
| Cc1cccc(-c2nnn3c2nc(NCCc2ccc(S(N)(=O)=O)cc2)c2cc(Cl)ccc23)c1 | inconclusive: 4.47 µM [inhibitor, partial curve, poor fit] |
| CCNC(=O)NC[C@@H]1C=C(C)[C@H](Cc2nnc(-c3cncn3C)o2)C[C@H]1C(C)C | inconclusive: 31.6 µM [inhibitor, partial curve, poor fit] |
| CC(=O)Nc1cccc(-c2cn(C)c(=O)n3cc(COc4ccc(Cl)cc4)nc23)c1 | inactive |
| O=C(CSc1nc2cc([N+](=O)[O-])ccc2o1)NCc1ccc(F)cc1 | inactive |
| CNC(=O)c1cccc(NC(=O)c2cccc3cccnc23)c1 | inactive |
| Cc1cn2nc(C(=O)NCc3cc(F)cc(F)c3)cc2c(N(C)Cc2ccccc2)n1 | active: 20 µM |
| Cn1nc(C(=O)OCCOc2ccc(Cl)cc2)c2ccccc2c1=O | inactive |
| O=C(NCCc1ccc(O)cc1)C1CCN(c2nc(Cl)nc3nc[nH]c23)CC1 | inactive |
| CCOc1ccc(NC(=O)CC2C(=O)OCCN2CC)cc1 (stereo unspecified) | inconclusive: 1.41 µM [inhibitor, partial curve, poor fit] |
| Cc1nc(-c2ccccn2)nc(SCC(=O)N2CCOCC2)c1Cl | inconclusive: 39.8 µM [inhibitor, single point] |
| CCN(CC)Cc1cnc2c(C(=O)NC(C)C(=O)N(C)C)cnn2c1 (stereo unspecified) | inconclusive: 35.5 µM [inhibitor, partial curve, poor fit] |
| O=C(CNC(=O)c1nn(Cc2ccccc2)c(=O)c2ccccc12)Nc1ccc(F)c(F)c1 | inactive |
| CN(Cc1ccon1)C(=O)CC1C(=O)NCCN1Cc1cccc(Oc2ccccc2)c1 (stereo unspecified) | inconclusive: 25.1 µM [inhibitor, single point] |

| Structure (SMILES) | Potency |
| --- | --- |
| CN1CCOc2c(C(=O)NCCc3ccccc3)cc(N3CCOCC3)cc21 | inconclusive: 11.2 µM [inhibitor, partial curve] |
| Cc1ccccc1CCNC(=O)c1ccc2c(c1)c(C)c(C)n2Cc1ccccc1 | inconclusive: 14.1 µM [inhibitor, partial curve, poor fit] |
| CC(=O)N1CCN(c2nc(CC(C)C)c3c(c2C#N)CCCC3)CC1 | inconclusive: 22.4 µM [inhibitor, partial curve, poor fit] |
| Cc1ccc(C)c(Nc2nc3c(S(=O)(=O)c4ccc(C(C)C)cc4)nnn3c3ccsc23)c1 | inconclusive: 1.12 µM [inhibitor, partial curve, poor fit] |
| CC(=O)Nc1ccc(Nc2cc(C)nc3c(-c4ccc(Cl)cc4)cnn23)cc1 | inconclusive: 14.1 µM [inhibitor, partial curve, poor fit] |
| Cc1ccc(S(=O)(=O)Nc2cccc(-c3cn4cccc(C)c4n3)c2)cc1 | inactive |
| CN(Cc1ccc(C(=O)NC2CC2)cc1)S(=O)(=O)c1ccc2c(c1)CCCC2 | inactive |
| CCn1cnnc1SCC(=O)c1[nH]c(C)c(C(=O)OC)c1C | inactive |
| CC(Oc1ccc(Cl)cc1Cl)C(=O)Nc1ccc2oc(=O)ccc2c1 (stereo unspecified) | inconclusive: 28.2 µM [inhibitor, single point] |
| CCN(CC)C(CNC(=O)Cc1ccccc1OC)c1ccsc1 (stereo unspecified) | inactive |
| O=C(Nc1ccc(Cl)cc1Cl)c1cc(S(=O)(=O)N2CCc3ccccc32)ccc1F | inactive |
| CCc1ccc(C2CC(C(=O)NCc3ccco3)CN(C(=O)c3ccc(F)cc3)C2)cc1 (stereo unspecified) | inconclusive: 20 µM [inhibitor, single point] |
| O=c1[nH]c(N2CCN(c3ccc(F)cc3)CC2)nc2c1CCC2 | inactive |
| COc1ccc(C(C)=O)cc1CC(=O)NCc1nnc2ccccn12 | inactive |
| O=C(/C=C/c1ccccc1Cl)c1cccc(O)c1 | inconclusive: 25.1 µM [inhibitor, single point] |
| N#Cc1ccc(OCc2noc(-c3ccc(Cl)cc3)n2)c(Cl)c1 | inactive |
| CCOC(=O)C1=C(O)c2ccccc2C(=O)/C1=C\c1ccc(CC)cc1 | inconclusive: 31.6 µM [inhibitor, partial curve, poor fit] |
| CC1=C(C(=O)N2CCN(c3cccc(C(F)(F)F)c3)CC2)C2(CCCCC2)OC1=O | inconclusive: 12.6 µM [inhibitor, partial curve, poor fit] |
| COc1ccc(OC)c(NS(=O)(=O)c2ccc(-c3cnc(C)o3)cc2)c1 | inactive |
| CCOC(=O)c1ccccc1NC(=O)c1cc2c(=O)oc3ccc(C)cc3c2s1 | inconclusive: 39.8 µM [inhibitor, single point] |
| N#Cc1nc(-c2ccccc2Cl)oc1N1CCN(C(=O)c2ccco2)CC1 | inconclusive: 31.6 µM [inhibitor, partial curve, poor fit] |
| CCN(c1ccccc1)c1ncnc2c1cnn2-c1ccc(C)cc1C | inconclusive: 39.8 µM [inhibitor, single point] |
